Hit rate of the full screen: of about 360,000 compounds, about 6,000 (1.7%) were called active. Inconclusive means that the source gave no clear call. Such entries were picked first, then a sample of the others. Calls follow the shape of the dose curve; as a rule, active = well fitted cell-killing curve with a large enough effect; inconclusive = small, poorly fitted or top-dose-only effect, or effect the other way; inactive = flat fitted curve, though single readings scatter. Potencies of inconclusive entries are left out as doubtful fits.
Assay: qHTS for induction of synthetic lethality in tumor cells producing 2HG: qHTS for the HT-1080-NT fibrosarcoma cell line;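 also: NT is the 2HG producing partner of a matched IDH1 knockdown line; nearly all actives have a fitted effect of over 55% in size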;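 as to activity, negative = less viability: 0% = DMSO-treated cells and -100% = media-only wells without cells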
Conditions: HT-1080-NT fibrosarcoma viability, CellTiter-Glo ATP luminescence, 48 h; activity, negative = less viability: at 46.1 µM (top of the series) unless noted
Procedure, shortened: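 A 48-hour cytotoxicity screen used HT-1080-NT cells plated 2 hours before compound delivery. ATP-based CellTiter-Glo luminescence measured viability, normalized to DMSO and no-cell controls.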
Potency is read from the fitted curve at half-maximal effect; tags tell the direction and shape of the fitted curve.

Structure (SMILES) | Potency | activity, negative = less viability
COc1cccc(C(=O)N2N=C(c3ccccn3)CC2(O)C(F)(F)F)c1 (configuration not stated) | inconclusive [cytotoxic, single point] | –
Cc1cc(F)ccc1C(O)c1ncc(-c2cccc3ccccc23)[nH]1 (configuration not stated) | inconclusive [cytotoxic, single point] | –
O=C(N/N=C/c1cc(Cl)ccc1O)C(=O)Nc1ccccc1OC(F)(F)C(F)F | inconclusive [cytotoxic, full curve] | –
O=C(C1CCN(Cc2ccc(Cl)cc2)CC1)N1CCN(C(c2ccccc2)c2ccccc2)CC1 | inconclusive [cytotoxic, single point] | –
CCOC(=O)N1CCN(c2nc(-c3ccco3)cc(C(F)(F)F)n2)CC1 | – | inconclusive: 30.9%
Cc1nn(C)cc1/C=C/C(=O)c1ccccc1 | inconclusive [cytotoxic, single point] | –
Cc1ccc(C)c(Cn2c3ccccc3c3cnn(CC(=O)NCCCN4CCOCC4)c(=O)c32)c1 | inconclusive [cytotoxic, single point] | –
CCOc1cc(C(=O)Nc2ccc(S(=O)(=O)NC3=NCCCCC3)cc2)cc(Br)c1OC | inconclusive [cytotoxic, partial curve] | –
O=[N+]([O-])c1cc([N+](=O)[O-])c2oc(-c3ccccc3)c(Br)c2c1O | inconclusive [cytotoxic, full curve] | –
COc1ccc(CN2CCN(CCCc3ccccc3)C(CCO)C2)cc1OC (configuration not stated) | inactive | –
CCCCNC(=O)NNC(=O)COc1cccc(C)c1C | – | inconclusive: 20.3%
O=C(NC(=S)NNC(=O)[C@H]1C[C@@H]1c1ccccc1)c1cccc(F)c1 | inactive | –
O=C(NCCN1CCOCC1)C(=O)NCC1OCCN1S(=O)(=O)c1ccccc1 (configuration not stated) | inactive | –
Cc1ccc(S(=O)(=O)N2[C@H](c3ccc(Cl)cc3)CC(=O)[C@@H]3CN(S(=O)(=O)c4ccccc4C)[C@H](c4ccc(Cl)cc4)C[C@@H]32)cc1 | inconclusive [cytotoxic, single point] | –
C=CCN(C(=O)c1csnn1)C(C(=O)NC1CCCC1)c1cccs1 (configuration not stated) | inactive | –
CCCc1cc(-c2n[nH]c(=S)n2Cc2ccccc2)cs1 | inconclusive [cytotoxic, single point] | –
Cc1c(C(=O)N(Cc2cccc(Br)c2)C2CCS(=O)(=O)C2)oc2ccc(F)cc12 (configuration not stated) | inconclusive [cytotoxic, single point] | –
CCOC(=O)c1cccc(NC(=O)c2c(NCc3ccccc3)[nH]c(=O)[nH]c2=O)c1 | inconclusive [cytotoxic, single point] | –
Cc1ccc(C)c(NC(=S)Nc2ncccc2C)c1 | inconclusive [cytotoxic, single point] | –
Cc1onc(-c2ccccc2Cl)c1C(=O)Nc1ccc(OCC(=O)N2CCOCC2)cc1 | inactive | –
COc1ccc(Oc2ccc(NC(=O)c3ccccc3C)cc2)cc1 | inconclusive [cytotoxic, full curve, poor fit] | –

Structure (SMILES) | Potency | activity, negative = less viability
O=C(NCc1ccco1)Nc1ccc2nsnc2c1 | inconclusive [cytotoxic, single point] | –
CCOC(=O)C1(C)CCCCCN1C(=O)c1ccc(Cl)nc1 (configuration not stated) | inactive | –
CCOC(=O)c1cc2c(=O)n3cccc(C)c3nc2n(Cc2ccco2)c1=NC(=O)c1ccccc1 | inactive | –
O=C(O)c1ccc(CN2C(=O)c3ccc(C(=O)O)cc3C2=O)cc1 | inactive | –
CCCCc1c(-c2ccccc2Br)ncn1CCc1ccccc1OC | inconclusive [cytotoxic, single point] | –
CCSc1nnc(NC(=O)c2ccc3c(c2)OCO3)s1 | inconclusive [cytotoxic, single point] | –
C[C@@H]1CN([C@@H](C)CO)C(=O)Cc2cc(NC(=O)Nc3ccc(C(F)(F)F)cc3)ccc2O[C@@H]1CN(C)S(=O)(=O)c1ccc(Cl)cc1 | inconclusive [cytotoxic, single point] | –
OC(c1ccccc1)(c1nc(-c2cc3ccccc3o2)cs1)C(F)(F)F (configuration not stated) | active: 16.4 µM | –
O=C1C=CC(=O)N1CCCCCCCCCCN1C(=O)C=CC1=O | inconclusive [cytotoxic, partial curve] | –
COC(=O)c1ccccc1NC1=C/C(=N\S(=O)(=O)c2cccs2)c2ccccc2C1=O | active: 20.6 µM | –
Cc1ccc(Nc2nc(N)c(C#N)c(CC#N)c2C#N)cc1 | inconclusive [cytotoxic, single point] | –
COc1cc2c(cc1NC(=O)CC1SC(N3CCCC3)=NC1=O)oc1ccccc12 (configuration not stated) | inconclusive [cytotoxic, single point] | –
COc1cc(C(O)c2nc(-c3ccc(F)c(Cl)c3)cs2)ccc1F (configuration not stated) | inconclusive [cytotoxic, single point] | –
CCc1nc2c(OCc3ccc(Cl)cc3)cccn2c1N(C=O)Cc1ccc(OC)cc1 | inconclusive [cytotoxic, single point] | –
O=C(C[C@H]1C/C=C\C[C@H](NC(=O)OCC2c3ccccc3-c3ccccc32)C(=O)OC[C@H](Cc2ccccc2)NC1=O)N[C@H](CO)Cc1ccccc1 | inconclusive [cytotoxic, single point] | –
CN(C1CCCCC1)S(=O)(=O)c1ccc(C(=O)Nc2sc3c(c2C(N)=O)CC(C)(C)NC3(C)C)cc1 | inconclusive [cytotoxic, partial curve] | –
Cc1ccc(-n2[nH]c(C)c(C=Nc3ccc4[nH]c(=O)[nH]c4c3)c2=O)cc1 | inconclusive [cytotoxic, partial curve] | –
Cc1ccc(-c2cc(C(F)(F)F)n3ncc(C(=O)N4CCCc5ccccc54)c3n2)cc1 | inactive | –
O=C(Nc1ccc(F)c(Cl)c1)C1Cc2c(-c3ccc(Cl)cc3)ccnc2O1 (configuration not stated) | inconclusive [cytotoxic, single point] | –
Brc1ccc2c(c1)C(C1=NCCN1)c1ccccc1CS2 (configuration not stated) | active: 0.82 µM | –
Oc1c(C(Nc2nccs2)c2ccc(C(F)(F)F)cc2)ccc2cccnc12 (configuration not stated) | inconclusive [cytotoxic, full curve] | –
